Our source for the IFI values is ChEMBL document CHEMBL1157539, “Thousands of chemical starting points for antimalarial lead identification” (Nature, 2010).

Molecules are shown by their SMILES. Values joined by “and” are separate entries in the source; they are usually repeats but may differ in a detail not shown here. Equal values may be shown once. In all, about 13,000 compounds were measured (“IFI”: median about 4, highest 2% from about 17 on). The list shows a part of the results.

The nature of the experiment: GSK_TCMDC: Inhibition Frequency Index (IFI). The number of non-kinase HTS assays where a compound showed > 50 % inhibition, expressed as a percentage of the number of such assays in which the compound was tested (-0 is zero). Format: functional.
`COc1ccc(CNC(=O)NC2CCN(c3ccnc(Nc4ccc(F)cc4)n3)CC2)cc1`: the IFI was found to be 1.52%. To `c1cc(CN2CCN(CCN3CCOCC3)CC2)cc(-c2cccc(-c3nc4ccccc4[nH]3)c2)c1` belongs -0%. To `O=C(Nc1ccc2[nH]c(-c3ccc4nc(NC(=O)C5CCCCC5)sc4c3)nc2c1)C1CCCCC1` belongs 5%.

The compound `CC1(C)NC(N)=NC(=N)N1OCCCCCCOc1ccc(Cl)c2ccccc12` yielded an IFI of 17%. Next, `CC(C)Sc1nc2c(c(=O)n1CCc1ccccc1)C1(CCCC1)Cc1ccccc1-2`: 0%; `Cc1cc(N[C@@H](Cc2ccccc2)C(=O)NCCOc2ccccc2)nc(NCCOc2ccccc2)n1`: 24.4%. To `COc1c(C2CCN(CCCCNC(=O)c3oc(-c4ccc(Cl)cc4)cc3CO)CC2)ccc2c1CCCC2` belongs 9.92%. To `COc1ccc(CC2(c3ccc(F)cc3)N=C(N)N(CCCc3ccc(F)c(F)c3)C2=O)cc1` (configuration not stated) belongs 20%.

In turn, `O=C(C=Cc1ccc(Cl)c(Cl)c1)NC1CCN(CCc2ccccc2)CC1` yielded an IFI of 1.35%. Next, `Cc1cc(=O)c(-c2ccc(Oc3cccc(Cl)c3)cc2)c(C)[nH]1`: 1.41%; `Cc1cccc2nc(-c3ccc(-c4ccc(CNC(C)C)cc4)cc3)[nH]c12`: 9.52%; `COc1ccc2c(C)cc(NCCCN(C)C)nc2c1`: 1.85%. As for `CC[C@H](C)CNC(=O)c1cncc(-c2ccc(CNCCCc3ccccc3)cc2)c1`, the IFI worked out at 6.35%. Next, `Cc1cc(OCc2ccccc2)c(OCc2ccccc2)cc1C(O)CN(C)Cc1ccccc1` (configuration not stated): 3.55%; `COc1ccc(-c2nc(NC(=O)Cc3coc4cc(OC)ccc34)sc2C)cc1`: 0.81%; `Cc1cnc(NCCc2ccc(F)cc2)nc1NCCC(=O)Nc1ccccc1`: 5%. To `CC(CN(C)C)C(=O)Nc1ccc(-c2cccc(-c3nc4ccccc4[nH]3)c2)cc1` (configuration not stated) belongs 2.65%; to `CC1CCCN(C(=O)c2cc(-c3ccccn3)nc3c(Cl)cccc23)C1` (configuration not stated), 1.59%; to `CC(C)CSc1cc(C(=O)Nc2cc(Cl)ccc2O)ccn1`, 12%. Next, `O=C(Nc1ccc(C(F)(F)F)cc1)NC1CCN(c2ccnc3cc(Cl)ccc23)CC1`: 10.8%.

Compound `CN1CCCc2ccc(NC(=O)Nc3ccc(Cl)c(Cl)c3)cc2C1` displayed an IFI of 3.45%. To `Cc1cccc2nc(-c3ccc(-c4cccc(CN5CCC(CO)CC5)c4)s3)[nH]c12` belongs 1.98%; to `COc1ccc(C=NN=c2cc(C)[nH]c3ccc(C)cc23)c2ccccc12`, 7.09%. To `COc1ccc2nc(-c3cc(-c4ccc(NC(C)=O)cc4)cnc3N)[nH]c2c1` belongs 10.7%; to `O=C(Nc1ccc(OC2CCN(Cc3ccc(F)cc3)C2)c(Cl)c1)c1ccsc1` (configuration not stated), 4.55%; to `CC(C)NCc1ccc(-c2cccc(NC(=O)c3ccc(F)cc3)c2)cc1`, -0%. For `O=C(NCCNc1nc(NCCNC(=O)Nc2ccccc2)c2ccc(=O)n(-c3c(F)cccc3F)c2n1)Nc1ccccc1`, the IFI came to 0%. Next, `CN1CCN(c2ccnc3ccc(NC(=O)Nc4ccc(-c5ccncc5)c(C(F)(F)F)c4)cc23)CC1`: 0.77%. To `Fc1cc(Cl)ccc1Nc1ccnc2cc(-c3ccc(CN4CCNCC4)o3)ccc12` belongs 6.67%. Next, `Cc1ccc(-c2cc(C(=O)Nc3ccc(S(=O)(=O)N4CCOCC4)cc3)[nH]n2)c(O)c1C`: 6.8%; `COc1ccc(-c2cnc3[nH]cc(-c4ccncc4)c3c2)cc1OC`: 13.5%. Consider `Cc1ccc(NC(=O)NC2CCN(c3ccnc4cc(Cl)ccc34)CC2)cc1`, for which the IFI was found to be 1.56%. To `COc1ccc(NC(=O)C2c3ccccc3C(=O)N(C3CCCC3)C2c2cccs2)cc1` (configuration not stated) belongs 2.38%; to `O=C(NCc1cccs1)[C@H](Cc1ccccc1)Nc1ccnc(NCCc2ccc(F)cc2)n1`, 9.3%. Next, `CCCC(CNCc1cccc(OCC)c1)CNc1cc(=O)c2ccccc2[nH]1` (configuration not stated): 3.62%. Next, `COc1cc2nc(NCc3ccccc3)nc(NCc3ccccc3)c2cc1OC`: 7.56%; `O=C(NCCCN1CCCC1=O)c1cnc(N2CCC(Oc3ccccc3)CC2)c(Cl)c1`: 3.7%; `CCCCC(=O)N(CCOC)Cc1ccc(-c2ccc(CNCCC)cn2)cc1`: -0%. In the case of `CC12CCC(C(=O)N(CC(O)Cn3c4ccc(Cl)cc4c4cc(Cl)ccc43)C1=O)C2(C)C` (configuration not stated), the IFI was 0.74%. To `O=C(/C=C/c1ccc([N+](=O)[O-])cc1)N1CCC(NS(=O)(=O)c2ccc(Br)cc2)CC1` belongs 0.74%. `O=C(c1cc(C(=O)Nc2ccc(F)cc2)c(=O)n(-c2ccc(F)cc2)c1)c1cc(Cl)ccc1O`: the IFI was determined as 6.16%. To `O=C(Nc1ccc(OC2CCN(Cc3ccc(F)cc3)CC2)cc1)c1cccs1` belongs 1.61%; to `CC(C)CNCc1ccc(-c2ccccc2CNC2CCN(Cc3ccccc3)CC2)cc1`, 5.84%. Next, `Cc1cccc2nc(-c3ccc(-c4ccc(NC(=O)c5cncn5C)cc4)s3)[nH]c12`: 4.5%; `O=C(Cc1c[nH]cn1)Nc1ccc(-c2cccc(-c3nc4cc(F)ccc4[nH]3)c2)cc1`: 2.78%; `Cc1ccccc1C1CCN(C2CCC(NC(=O)/C=C/c3cc(F)ccc3F)CC2)CC1` (configuration not stated): 6.67%. Next, `CC1CCCN(Cc2c(O)ccc3c(O)c(-c4nc5ccccc5s4)c(=N)oc23)C1` (configuration not stated): 5.31%; `CCOc1ccc(Br)cc1/C=C/C(=O)Nc1ccc(C2CCN(C)CC2)cc1`: 15.5%; `CN1CCN(CCCN(Cc2ccc(-c3ccc(CNCc4ccc5c(c4)OCO5)cc3)cc2)C(=O)Nc2ccccc2)CC1`: 5.11%. As to `O=C(Nc1ccccc1O)c1ccc(S(=O)(=O)c2ccc(Cl)cc2)cc1`, the IFI was found to be 0%. To `COc1ccc(Br)cc1/C=C/C(=O)Nc1ccc(C2CCCN(C)C2)cc1` (configuration not stated) belongs 5.26%.

With `COc1cc2nc(Nc3ccc(N4CCOCC4)cc3)nc(N)c2cc1OC`, the IFI was determined as 1.99%. Next, `Cc1cc2c(cc1C(F)(F)F)N(C(=O)Nc1cc(C(=O)NC3CCN(Cc4ccccc4)C3)cc(C(F)(F)F)c1)CC2` (configuration not stated): 4.26%. Next, `CCN(CCCN1CCCCC1)c1cc(C)nc(Nc2ccc(C)c(C)c2)n1`: 6.33%; `Nc1c2c(nc3ccc(NC(=O)c4ccc([N+](=O)[O-])cc4)cc13)CCCC2`: 3.7%. The compound `COc1cc(Cc2cnc(N)nc2N)cc(OCCCCCCC(=O)O)c1OC` registered an IFI of 1.39%. To `CCc1cn(CC(=O)N(CCOc2ccc(-c3ccc(C(F)(F)F)cc3)cc2)CCN(CC)CC)c(SCc2ccc(F)cc2)nc1=O` belongs 6.34%; to `Nc1c(Cl)cc(C(O)CNCCCCCCOCCC=C2CCOCC2)cc1Cl` (configuration not stated), 2.86%; to `CC(C)CCN1CCCN(Cc2cccc(NC(=O)c3ccc(-c4ccccc4)cc3)c2)CC1`, 5.48%.

`CC(C)NCc1ccc(-c2cccc(CN3CCC(c4ccccc4)CC3)c2)c(C(=O)NCC2CCCCC2)c1` showed an IFI of 8.05%. To `O=C(NCCCCN1CCCC2c3ccc(O)cc3CCC21)c1ccc(-c2ccccc2)cc1` (configuration not stated) belongs 6.87% and 7.63%. To `CCCN(CCC)C(=S)N/N=C1/C(=O)Nc2ccccc21` belongs 4.41%; to `CC(C)CC1(C(=O)OC(C)(C)C)CC(C(=O)OC(C)(C)C)C(c2cccs2)N1C(=O)c1ccc(C(C)(C)C)cc1` (configuration not stated), 1.47%; to `O=C(Nc1cccc(N2CCC(NCCCc3ccncc3)CC2)c1)c1cccc(C(F)(F)F)c1`, 2.38%. To `O=C(NCCCc1ccccc1)c1ccc(O)c(-c2cc(Cl)cc(Cl)c2)c1` belongs 2.96%. `CC(C)NCc1ccc(-c2ccc(-c3nc4cc(C(F)(F)F)ccc4[nH]3)cc2)cc1` registered an IFI of 8.57%. To `CC(C)c1ccc(NC(=O)c2ccc(C(=O)NCC3CCN(CC4CCCCC4)CC3)cc2)cc1` belongs 3.48%.

In turn, `CCOc1cc2c(cc1S(=O)(=O)c1ccc(COc3ccc(C(F)(F)F)cc3)cc1)CCN(C)CC2` yielded an IFI of 9.79%.

The compound `COc1cc(NC(=O)c2sc(-c3ccc(Cl)cc3)cc2NC(=O)CN2CCCC2)ccc1OCCN1CCCC1` came in with an IFI of 7.91%. To `CCOc1ccc(-c2nonc2NC(=O)c2cccs2)cc1OCC` belongs -0%. Next, `CC(C)NCC(=O)Nc1cccc(C(=O)Nc2cccc(C(F)(F)F)c2)c1`: 2.04%. Next, `CC1CCc2sc(-c3nnc(SC(C)C(=O)N4CCCC4)o3)cc2C1` (configuration not stated): 2.04%; `O=C(C=Cc1ccc(-c2nc3ccccc3[nH]2)cc1)NC1CCN(Cc2ccccc2)CC1`: 2.27%.

For the compound `O=C(NOCc1ccccc1)c1cc(Cl)ccc1O`, the IFI turned out to be 0.72%. To `COc1ccc(OC)c2c1CCN(CCN1CCC(C(=O)Nc3ccc(C(=O)Nc4ccc(Cl)cc4)cc3)CC1)C2` belongs 3.64%; to `Cn1nccc1C(=O)NCCNCc1cccc(-c2csc(-c3nc4ccccc4[nH]3)c2)c1`, 3.88%. To `CC1(C)CCC(C)(C)c2c1ccc(C1CCN(CCCCNC(=O)c3ccc(-c4ccc(Cl)cc4)cc3)CC1)c2O` belongs 13.7%. To `CN(CCCNc1ccc(C(=O)Nc2ccc(C(F)(F)F)cc2)cc1[N+](=O)[O-])Cc1ccccc1` belongs 3.7%; to `CCOC(=O)c1c[nH]c2c(ccc3ccccc32)c1=O`, -0%; to `COc1ccc(Cl)cc1NC(=O)Nc1ccc2c(c1)CCN(C1CCC1)CC2`, 3.88%. Consider `CN(C)CCCn1cncc1-c1ccc2ncnc(Nc3ccc(OCc4ccccc4)cc3)c2c1`, for which the IFI was determined as 4.44%.

`CN(C)Cc1cccc(CNC(=O)c2sccc2OCc2ccc(Cl)cc2)c1`: the IFI turned out to be 4.85%. Next, `COc1ccccc1C1CC(c2ccccc2)=NN1C(=O)c1ccco1` (configuration not stated): -0%. Next, `Nc1nc(N)c2c(ccc3c2ccn3CCCF)n1`: 3.74%.

In the case of `COc1ccc(NC(=O)[C@H](Cc2ccccc2)Nc2cc(C)nc(NCCc3ccccc3)n2)cc1`, the IFI turned out to be 9.09%.

On to `COCCOC(=O)C(=O)c1c(-c2ccccc2)c(-c2ccc(OC)c(OC)c2)c2c3cc(OC)c(OC)cc3ccn12`, for which the IFI is 3.45%. Next, `CC(C)c1cc(N)c2cc(NC(=O)COCC(=O)Nc3ccc4nc(C(C)C)cc(N)c4c3)ccc2n1`: 0.73%; `CCN1CCC(N(Cc2ccc(-c3ccc(C(F)(F)F)cc3)cc2)C(=O)Cn2c(CCc3cccc(F)c3F)cc(=O)c3c2CCC3)CC1`: 4.96%.

In turn, `c1csc(-c2nc(NCC3CCCO3)ncc2-c2ccsc2)n1` (configuration not stated) displayed an IFI of 1.12%. To `O=C(Nc1ccc2c(c1)CCC2)c1nc(N2CCN(c3ccncc3)CC2)ccc1Cl` belongs 13.8%. Next, `Cc1ccc(N2C(N)=NC(N)=NC2c2ccccc2)cc1` (configuration not stated): 0%; `Cc1ccc(C2CCN(CCCCNC(=O)c3ccc(NC(=O)c4ccc(Cl)cc4)cc3)CC2)c(C)c1`: 3.01%.
